About 150 (0.041%) of roughly 370,000 compounds were called active. The inconclusive results got no clear call from the source; some entries with a clear call stand among them for comparison. Calls follow the shape of the dose curve; as a rule, active = well fitted inhibition curve with a large enough effect; inconclusive = small, poorly fitted or top-dose-only effect; inactive = flat fitted curve, though single readings scatter. Potencies of inconclusive entries are left out as doubtful fits.
Each compound was assayed against Beta-lactamase (Escherichia coli (strain K12)) (UniProt P00811) (assay: qHTS Inhibitors of AmpC Beta-Lactamase (assay with detergent)). Details: AmpC hydrolysis of nitrocefin, absorbance 480 nm, 0.01% Triton; series mostly up to 114 µM.
UniProt P00811, sequence (P00811 whole entry, looked up): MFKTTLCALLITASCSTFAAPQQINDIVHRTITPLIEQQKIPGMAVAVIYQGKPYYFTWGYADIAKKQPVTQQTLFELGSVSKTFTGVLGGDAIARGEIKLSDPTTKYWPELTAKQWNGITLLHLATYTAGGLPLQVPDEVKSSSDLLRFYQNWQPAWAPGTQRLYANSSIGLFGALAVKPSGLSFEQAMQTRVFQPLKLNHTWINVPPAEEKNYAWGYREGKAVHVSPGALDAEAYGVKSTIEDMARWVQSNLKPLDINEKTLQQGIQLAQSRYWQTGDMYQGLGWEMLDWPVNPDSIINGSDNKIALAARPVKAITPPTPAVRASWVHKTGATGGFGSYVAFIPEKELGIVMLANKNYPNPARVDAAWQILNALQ
Summary of the method: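 AmpC (5.3 nM in the dispensed reagent) in 20 mM phosphate pH 7.0 with 0.01% (detergent screen) or 0.0001% Triton X-100 was preincubated with compounds for 15 min at room temperature. Nitrocefin was then added from an 800 uM solution, and hydrolysis was followed at 480 nm.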
With `O=C(CSc1nc2cc([N+](=O)[O-])ccc2n1-c1ccc(F)cc1)NC1CCS(=O)(=O)C1` (centres undefined) the Potency was inconclusive [inhibitor, single point]. With `CCC(=O)Oc1cccc(C(=O)Nc2ccc(-c3nnc(-c4ccco4)o3)cc2)c1` the Potency was inconclusive [inhibitor, full curve, poor fit]. `CC(=O)c1cccc(CN2CCN(Cc3ccc(C)cc3)C(CCO)C2)c1` (centres undefined) was tested, and the Potency was “inactive”. `Cc1ccc(Nc2nc(-c3cccnc3)cs2)cc1Cl` was tested, and the Potency was “inactive”. With `COc1ccc(C)cc1NC(=S)NN1CCN(C)CC1` the Potency was inconclusive [inhibitor, full curve, poor fit]. `COc1ccc(-c2cc(C)no2)cc1S(=O)(=O)N1CCN(c2ccc([N+](=O)[O-])cc2)CC1` was tested, and the Potency was “inactive”. For `O=S(=O)(c1ccc(Cl)cc1)c1cnc2ccccc2n1`, the Potency was “inactive”. For `Cc1ccc(C2=NC3(CCCCC3)N=C2SCC(=O)Nc2ccc3c(c2)OCCO3)cc1`, the Potency was inconclusive [inhibitor, full curve, poor fit]. In the case of `CCc1c(C)nc(SCCOc2ccc(OC)cc2)[nH]c1=O`, the Potency was inconclusive [inhibitor, full curve, poor fit]. `CCN(CC)S(=O)(=O)c1cc(NC(=O)CO/N=C(\N)c2ccccc2Cl)ccc1C` was tested, and the Potency was “inactive”. For `CN(C)c1ccc(S(=O)(=O)NCC(=O)OCC(=O)c2ccc[nH]2)cc1[N+](=O)[O-]`, the Potency was inconclusive [inhibitor, partial curve]. In the case of `CNC(=O)CCn1nc(-c2ccc(Cl)cc2)c2ccccc2c1=O`, the Potency was inconclusive [inhibitor, single point]. `CCCNC(=O)c1cc(OC)c(OC)cc1[N+](=O)[O-]` was tested, and the Potency was inconclusive [inhibitor, full curve, poor fit]. `CCCCCNC(=O)c1ccc2c(=O)n(CCCOCC)c(=S)[nH]c2c1` was tested, and the Potency was inconclusive [inhibitor, partial curve]. In the case of `O=C(CSc1nnc(-c2ccccc2)o1)N1CCCc2ccccc21`, the Potency was “inactive”. `O=C(c1ccccc1Cl)N1CCC(N2CCC(C(=O)N3CCCC3)CC2)CC1` was tested, and the Potency was inconclusive [inhibitor, single point]. With `CCn1c(=O)cc(SCC(=O)N2CCN(c3cc(C)ccc3C)CC2)c2ccccc21` the Potency was “inactive”. In the case of `CCCCCN(C(=O)CCC(=O)OCc1ccc(Cl)cc1Cl)c1c(N)n(CCCC)c(=O)[nH]c1=O`, the Potency was inconclusive [inhibitor, full curve, poor fit]. With `O=C(c1ccccc1)N1CCN(C(=O)c2cc3ccccc3o2)CC1` the Potency was inconclusive [inhibitor, full curve, poor fit]. With `Nc1c(C(=O)CSc2nnc(N3CCOCC3)n2-c2cccc(F)c2)c(=O)[nH]c(=O)n1C1CC1` the Potency was inconclusive [inhibitor, full curve, poor fit]. In the case of `COC(=O)c1[nH]c2cc(OC)ccc2c1NC(=O)CCN1CCN(c2cccc(C)c2C)CC1`, the Potency was inconclusive [inhibitor, partial curve, poor fit]. `Cc1ccccc1-c1nc(CS(=O)(=O)CC(=O)NCCCN2CCCC2=O)c(C)o1` was tested, and the Potency was “inactive”. In the case of `O=C(c1ccccc1)c1ccc2nc(Nc3ccccc3Cl)c3nncn3c2c1`, the Potency was “inactive”. With `Fc1ccc(Cl)cc1/C=N/n1cnnc1SCc1ccccc1` the Potency was “inactive”. With `Cc1cc(C)nc(NC(=O)c2ccc(OC(C)C)cc2)n1` the Potency was inconclusive [inhibitor, single point]. `CC1(C)C2CCC(C2)C1(C)NC(=O)CN1CCOCC1` (centres undefined) was tested, and the Potency was inconclusive [inhibitor, full curve, poor fit]. In the case of `COc1ccc(-n2c(C)c(C(C)=O)c(C(C)=O)c2C)cc1OC`, the Potency was inconclusive [inhibitor, full curve]. With `NC(=O)c1ccccc1` the Potency was inconclusive [inhibitor, full curve, poor fit]. `CCC(C)NC(=O)c1ccc2c(SCC(=O)O)c3c(nc2c1)CCCC3` (centres undefined) was tested, and the Potency was inconclusive [inhibitor, partial curve, poor fit]. With `COc1ccc(N2CC(NC(=O)N3CCN(C(=O)c4ccco4)CC3)CC2=O)cc1OC` (centres undefined) the Potency was inconclusive [inhibitor, partial curve]. For `Brc1ccc(CN2CCN(c3ccccc3)CC2)o1`, the Potency was inconclusive [inhibitor, single point]. In the case of `O=C(COC(=O)c1ccc[nH]c1=O)Nc1ccc(S(=O)(=O)N2CCCC2)cc1`, the Potency was inconclusive [inhibitor, single point]. In the case of `CC(C)CC(=O)N1CCN(S(C)(=O)=O)CC1`, the Potency was inconclusive [inhibitor, single point]. In the case of `Cc1sc2c(c1C)c(=O)n(-c1cccc(C(F)(F)F)c1)c(=O)n2Cc1ccc(F)cc1`, the Potency was “inactive”. In the case of `CCc1c(C#N)c(SCc2c(C)noc2C)nc2c1C(=O)CC(C)(C)C2`, the Potency was inconclusive [inhibitor, partial curve]. `Cc1ccc2[nH]c3c(c2c1)CN(C(=O)CN1CCN(c2ccccc2)CC1)CC3` was tested, and the Potency was inconclusive [inhibitor, full curve, poor fit]. With `Cc1cc(C)cc(NC(=O)c2ccc(CNc3c(N4CCOCC4)c(=O)c3=O)cc2)c1` the Potency was inconclusive [inhibitor, partial curve, poor fit]. For `CC(C)c1ccc(/C=C/C(=O)NC(=S)NN2CCOCC2)cc1`, the Potency was “inactive”. For `COc1ccc2nc(SCC(=O)N3CCNC3=O)[nH]c2c1`, the Potency was “inactive”. In the case of `CC1CCN(C(c2ccc(N(C)C)cc2)c2nnnn2C(C)(C)C)CC1` (centres undefined), the Potency was inconclusive [inhibitor, full curve, poor fit]. With `CN1C(=O)OC(C)(CCc2ccccc2)C1(C)O` (centres undefined) the Potency was inconclusive [inhibitor, partial curve, poor fit]. In the case of `Cc1ccc(S(=O)(=O)Nc2nc3ccccc3nc2NCc2ccco2)cc1`, the Potency was “inactive”. `CCNc1nc(NCC)nc(N/N=C/c2cc(OC)c(OC)c(OC)c2)n1` was tested, and the Potency was “inactive”. `COc1ccc(-c2nnc(NC(=O)c3c(OC)cccc3OC)s2)cc1` was tested, and the Potency was “inactive”. In the case of `CCc1ccc(OCC2Cn3c(nc4c3c(=O)[nH]c(=O)n4C)O2)cc1` (centres undefined), the Potency was inconclusive [inhibitor, full curve]. With `Cc1nn(CCC#N)c2nc(C(F)(F)F)[nH]c(=O)c12` the Potency was inconclusive [inhibitor, full curve, poor fit]. In the case of `CCC(Oc1ccc(F)cc1)C(=O)Nc1nc(-c2ccc(F)cc2)ns1` (centres undefined), the Potency was “inactive”. For `Cc1cc2[nH]c(=O)c(=O)[nH]c2cc1S(=O)(=O)N(C)C1CCCCC1`, the Potency was inconclusive [inhibitor, full curve, poor fit]. In the case of `Cc1ccc(C2NC(=O)NC3=C2CCc2ccccc23)cc1` (centres undefined), the Potency was inconclusive [inhibitor, full curve]. With `COc1cccc(NS(=O)(=O)c2cc3c4c(c2)CCC(=O)N4CCC3)c1` the Potency was inconclusive [inhibitor, full curve, poor fit]. With `COc1ccccc1C(=O)Nc1ccc2c(c1)nc(CN1CCCCC1)n2C` the Potency was “inactive”. `Cc1oc2c(c1C(=O)NC(Cc1c[nH]c3ccccc13)C(=O)O)CCCC2` (centres undefined) was tested, and the Potency was inconclusive [inhibitor, partial curve, poor fit]. For `Cc1cc(C)nc(Nc2ccccc2F)n1`, the Potency was inconclusive [inhibitor, full curve]. In the case of `COc1ccc(Nc2ncc3c(n2)CC(c2ccccc2)CC3=O)cc1` (centres undefined), the Potency was inconclusive [inhibitor, partial curve]. `COc1ccc(OCCOC(=O)CNC(=O)c2cccc(C)c2)cc1` was tested, and the Potency was inconclusive [inhibitor, full curve, poor fit]. In the case of `C/C(=N\NC(=O)c1ccncc1)c1cc2ccccc2o1`, the Potency was “inactive”. `O=C(Cc1csc(NC(=O)Nc2cccc(Cl)c2)n1)NCc1ccccn1` was tested, and the Potency was inconclusive [inhibitor, full curve, poor fit]. With `COc1ccc([C@@H]2[C@H]3C(=O)N(c4cccc(C(F)(F)F)c4)C(=O)[C@H]3ON2C)cc1` the Potency was inconclusive [inhibitor, full curve]. With `O=C1NC(=O)N(Cc2ccccc2)C(=O)/C1=C/c1cnc(-c2ccccc2)nc1` the Potency was inconclusive [inhibitor, single point]. For `O=S(=O)(CCOc1ccccc1)c1nc2ccccc2[nH]1`, the Potency was “inactive”. `COCCN(C(=O)CSc1nc2ccc(OC)cc2[nH]1)c1c(N)n(Cc2ccccc2)c(=O)[nH]c1=O` was tested, and the Potency was inconclusive [inhibitor, single point]. For `CN(Cc1ccccc1C#N)S(=O)(=O)c1cccs1`, the Potency was “inactive”. `O=C(N/N=C/c1ccc(Br)cc1)c1ccc(F)cc1` was tested, and the Potency was inconclusive [inhibitor, partial curve, poor fit]. In the case of `O=[N+]([O-])c1cc(Br)c(OCc2nnc(-c3ccccc3)o2)c(Br)c1`, the Potency was inconclusive [inhibitor, full curve]. For `CCOC(=O)c1c(NC(=O)CSc2nnc(C)s2)sc2c1CCC(C)C2` (centres undefined), the Potency was “inactive”. For `CC[n+]1ccc(C[n+]2ccccc2)c2ccccc21`, the Potency was active: 31.6 µM. In the case of `COc1cc(CNCCSc2nnnn2C)cc(Br)c1OCc1ccccc1F`, the Potency was “inactive”. With `CCOc1cc(CNCCO)cc(Br)c1OCc1ccccc1Cl` the Potency was “inactive”. `O=C1/C(=C/c2cccs2)CCC1C1CCCC1` (centres undefined) was tested, and the Potency was inconclusive [inhibitor, single point].
Also: nearly all actives have a fitted effect of over 25% in size.
Potency is read from the fitted curve at half-maximal effect; tags tell the direction and shape of the fitted curve.
